Measurements: PubChem BioAssay AID686979 (National Center for Advancing Translational Sciences (NCATS), 2013)
Hit rate of the full screen: of about 420,000 compounds, about 50,000 (12%) were called active. This list was built around the results that the source calls inconclusive (neither active nor inactive); the mix of calls is not that of the screen. The call rests on the fitted dose curve; in most records, active means well fitted inhibition curve with a large enough effect; inconclusive means small, poorly fitted or top-dose-only effect; inactive means flat fitted curve, though single readings scatter. Potencies of inconclusive entries are left out as doubtful fits.

assay: qHTS for Inhibitors of human tyrosyl-DNA phosphodiesterase 1 (TDP1): qHTS in cells in presence of CPT; details: chicken DT40 Tdp1-/-;hTDP1 cells + 20 nM CPT, ATP luminescence, 48 h; activity change, negative = growth inhibition: at 46.2 µM (top of the series) unless noted; further: nearly all actives have a fitted effect of over 55% in size
How it was run: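 Cell growth measured by CellTiter-Glo luminescence after a minimum 48 h, 37 C compound exposure with 20 nM CPT in Tdp1-knockout DT40 cells stably expressing hTDP1, seeded 400/well; qHTS titration format.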
On the % scale 0 is the no-effect control and ±100 the full control effect; potency means the concentration at half of the fitted maximal effect; tags describe the fitted curve by direction and shape.

Row | Compound | activity change, negative = growth inhibition | Potency
1 | CCC(C)C(=O)Nc1ccc(S(=O)(=O)Nc2nccs2)cc1 (stereo unspecified) | inactive: -1.64% | 
2 | O=C(COc1ccc(Br)cc1F)NC1CCN(Cc2ccccc2)CC1 |  | inconclusive [inhibitor, single point]
3 | O=C1/C(=C/c2ccc(O)cc2)SC(=S)N1CC1CCCO1 (stereo unspecified) |  | inconclusive [inhibitor, single point]
4 | CC(C)C(NC(=O)c1ccccc1F)C(=O)NCc1ccccc1 (stereo unspecified) |  | inconclusive [inhibitor, single point]
5 | CCCCNc1nc2c(c(=O)n(C)c(=O)n2C)n1CC(O)COc1ccccc1C (stereo unspecified) |  | active: 20.6 µM
6 | Cc1cc(C(=O)N2CCN(Cc3ccc4c(c3)OCO4)CC2)cs1 | inactive: -7.63% | 
7 | CCn1cc(C(=O)N2CCN(C(=O)c3ccco3)CC2)c2cc(OC)c(OC)cc2c1=O | inactive: -2.49% | 
8 | CC1=C(C(=O)Nc2ccc(C(=O)NCCCN3CCCCC3)cc2)SCCO1 | inactive: -3.39% | 
9 | CCOC(=O)c1cc2c(=O)n3cccc(C)c3nc2n(Cc2ccco2)c1=NC(=O)c1cccnc1 |  | active: 16.4 µM
10 | COc1ccc(C(=O)N2CCN(c3c(C)cccc3C)CC2)cc1OC |  | active: 23.1 µM
11 | CCOc1ccccc1-n1nnc(-c2nc(-c3ccccc3C)no2)c1C |  | inconclusive [inhibitor, single point]
12 | COc1ccc(-c2cc3nc(-c4ccccc4)cc(N4CCN(C(=O)c5ccoc5)CC4)n3n2)cc1 |  | inconclusive [inhibitor, single point]
13 | COc1cccc(OC)c1C(=O)OCC(=O)NCC1CCCCC1 |  | inconclusive [inhibitor, single point]
14 | COc1ccc(-n2nc3c(c2NC(=O)c2ccccc2S(=O)(=O)C(F)F)CS(=O)(=O)C3)cc1 | inactive: -17.9% | 
15 | C/C(=C\c1ccccc1)C(=O)NCCN1CCOCC1 | inactive: -3.74% | 
16 | CCOC(=O)c1ccc(S(=O)(=O)NCCN(CC)CC)cc1 |  | inconclusive [inhibitor, full curve]
17 | O=C(O)c1cccc(Nc2ncnc3ccc(Br)cc23)c1 |  | inactive
18 | Cc1nn(C)c2c1c(C(F)(F)F)cc(=O)n2CC(=O)N1CCCCC1 |  | inconclusive [inhibitor, single point]
19 | CCOC(=O)c1c(NC(=O)c2ccc(Br)cc2)sc2c1CCCC2 | inactive: 13.2% | 
20 | Cc1ccc(N2CCN(C(=O)CCc3nc4ccccc4[nH]3)CC2)c(C)c1 |  | active: 18.4 µM
21 | CCOc1ccc(/C=C/c2cc[n+](C)c3ccccc23)cc1OCC |  | inconclusive [inhibitor, single point]
22 | O=C1CCCCC1C(Nc1ccc(Br)cc1)c1ccccc1 (stereo unspecified) | inactive: 2.25% | 
23 | Cc1ccc(Cl)cc1NC(=O)N1CCC(CN2CCCCCC2)CC1 |  | inconclusive [inhibitor, single point]
24 | CCCCCCOc1ccc(/C=c2\s/c(=C(/C#N)C(=O)NCc3ccco3)n(-c3ccccc3)c2=O)cc1 |  | active: 2.91 µM
25 | Cc1sc2ccccc2[n+]1CCc1ccccc1 |  | active: 6.31 µM
26 | O=C(CCNC(=O)c1ccc(Cl)cc1)NC1CCCc2ccccc21 (stereo unspecified) |  | inconclusive [inhibitor, partial curve, poor fit]

Row | Compound | activity change, negative = growth inhibition | Potency
27 | O=C(Nc1ccccc1)Nc1nc2ccccc2s1 | inactive: 1.18% | 
28 | Cc1csc(-c2cnn(-c3ccccc3)c2NC(=O)c2ccc(C(F)(F)F)cc2)n1 |  | inconclusive [inhibitor, single point]
29 | Cc1ccsc1/C=N/NC(=S)NCc1ccccc1 |  | inconclusive [inhibitor, single point]
30 | Nc1cc2cccnc2cc1Cl | inactive: -14.1% | 
31 | CC(=O)N1c2ccc(S(=O)(=O)N3CCCC(C(=O)N4CCCCC4)C3)cc2CC1C (stereo unspecified) |  | inconclusive [inhibitor, single point]
32 | COCCn1c(C)cc(C2=NNC(=Nc3ccc(Cl)cc3Cl)SC2)c1C |  | inconclusive [inhibitor, partial curve, poor fit]
33 | O=C1C=C(c2ccc3ccccc3c2)C[C@@H](c2ccc(Cl)cc2)C1 |  | inconclusive [inhibitor, single point]
34 | CN(Cc1ccccc1)C(=O)COC(=O)c1cc(-c2ccc(Cl)s2)nc2ccccc12 | inactive: -12.1% | 
35 | Cc1ccccc1NC(=O)c1cccc2c(=O)c3c([nH]c12)CCCC3 |  | inconclusive [inhibitor, single point]
36 | O=C(c1ccc(Cl)c(S(=O)(=O)N2CCOCC2)c1)N1CCN(c2ccccc2)CC1 |  | inconclusive [inhibitor, single point]
37 | CCN(CC)c1ccc(/C=N/NC(=O)Nc2ccccc2)cc1 |  | inconclusive [inhibitor, single point]
38 | Cn1nnnc1SCC(=O)NNC(=O)c1ccc(Cl)cc1 | inactive: 11.7% | 
39 | COc1ccccc1N1CCN(C(=O)c2ccoc2C)CC1 | inactive: -14.4% | 
40 | CCCC1(c2ccccc2)NC(=O)N(CC(=O)Nc2cc(S(=O)(=O)N3CCOCC3)ccc2Cl)C1=O (stereo unspecified) | inactive: -0.554% | 
41 | Cc1ccc2cc(CN(C)C(=O)c3cccc(Cl)c3)c(=O)[nH]c2c1 |  | inconclusive [inhibitor, single point]
42 | O=C(C1COc2ccccc2O1)N1CCn2c(nc3ccccc32)C1 (stereo unspecified) |  | inconclusive [inhibitor, partial curve, poor fit]
43 | O=C(Oc1ccc(O)cc1)C12CC3CC(CC(C3)C1)C2 |  | inconclusive [inhibitor, single point]
44 | CCOC(=O)C1(CCCc2ccccc2)CCN(C(=O)c2cc(C)nn2CC)CC1 |  | active: 18.4 µM
45 | O=C(Nc1ccccc1Cl)c1ccccc1Cl | inactive: 1.26% | 
46 | COC(=O)c1ccc(CNC(=O)COC(=O)c2ccccc2-c2ccccc2)cc1 |  | inconclusive [inhibitor, single point]
47 | O=C1NC[C@@H](CCCCN2C[C@H](Cc3ccccc3)N(CC3CCCCC3)C(=O)C2=O)N(CCc2ccccc2)C1=O | inactive: -0.664% | 
48 | CCOC(=O)C1=C(Nc2ccccc2)CC(C)(O)C(C(=O)OCC)C1c1ccc(Br)cc1 (stereo unspecified) |  | inconclusive [inhibitor, single point]
49 | O=C(CN(Cc1ccccc1Cl)C(=O)c1csnn1)NCCc1ccccc1 | inactive: 23.4% | 
50 | COc1cc(C)c(Br)cc1S(=O)(=O)NCc1ccccc1 | inactive: 0.502% | 
51 | CCC(C)n1ncn(-c2ccc(N3CCN(c4ccc(OCC5COC(Cn6cncn6)(c6ccc(Cl)cc6Cl)O5)cc4)CC3)cc2)c1=O (stereo unspecified) |  | active: 2.59 µM
52 | Cc1cc(N=NC(=O)c2ccccc2O)c2ccccc2c1O |  | active: 16.4 µM

Row | Compound | activity change, negative = growth inhibition | Potency
53 | COc1ccc(/C=C/C(=O)c2cc(O)ccc2O)cc1 |  | active: 16.4 µM
54 | Cc1cc(OCCCC(=O)NNC(=O)c2ccncc2)ccc1Cl | inactive: -9.48% | 
55 | C=CCNC(=O)c1c(CSc2ccc(Cl)cc2)noc1C(=O)NCc1ccccc1 |  | inconclusive [inhibitor, single point]
56 | COC(=O)c1ccc(/C=N\NC(=O)c2ccc(C)cc2Cl)cc1 | inactive: -20.6% | 
57 | CCOC(=O)C1=CCN(S(=O)(=O)c2ccc(F)cc2)C1c1ccc(Cl)c(Cl)c1 (stereo unspecified) |  | inconclusive [inhibitor, single point]
58 | COc1ccc(-c2cc(-c3nnc(COC(=O)C4CC4)o3)c3ccccc3n2)cc1OC |  | inconclusive [inhibitor, single point]
59 | Cc1cccc(C)c1CC(=O)N1CCOCC1 | inactive: 22.2% | 
60 | CCOc1ccc(-c2c(=O)n(OCc3nc4ccccc4[nH]3)c3ccccc3[n+]2[O-])cc1 |  | inconclusive [inhibitor, single point]
61 | CCC1CN(C(=O)Nc2cc(C)ccc2OC)c2cc(Cl)ccc2O1 (stereo unspecified) |  | inconclusive [inhibitor, single point]
62 | O=c1[nH]c2cccnc2n1-c1cccc([N+](=O)[O-])c1 | inactive: 1.21% | 
63 | COc1ccc(C(N)c2csc(NC(=O)Nc3ccccc3C(C)(C)C)n2)cc1 (stereo unspecified) |  | inconclusive [inhibitor, single point]
64 | Cc1ccc(NC(=O)c2nn(C34CC5CC(CC(C5)C3)C4)cc2[N+](=O)[O-])cc1 |  | active: 23.1 µM
65 | CCCc1nnc(SCc2ccc(OC)cc2)n1N |  | active: 25.9 µM
66 | COc1ccc(NC(=O)C2Cc3c(-c4ccc(NC(C)=O)cc4)ccnc3O2)cc1 (stereo unspecified) |  | inconclusive [inhibitor, partial curve, poor fit]
67 | COc1ccccc1-c1ccc(NC2CCCCC2)nn1 |  | inconclusive [inhibitor, single point]
68 | CCC(CC)C(=O)c1c[nH]c(C(=O)NCc2ccccn2)c1 | inactive: 6.48% | 
69 | CC(C)(C)OC(=O)N1CCC(NC(=O)c2nc[nH]c2C(=O)N2CCN(c3ccccc3)CC2)CC1 |  | inconclusive [inhibitor, single point]
70 | COc1ccc(C(=O)N2CCN(c3nc(C4CC4)nc4sc(C)c(C)c34)CC2)cc1 |  | inconclusive [inhibitor, single point]
71 | O=C(CSc1nnc(-c2ccccc2Br)o1)Nc1nncs1 | inactive: -12.8% | 
72 | O=C1C(Cl)=C(Nc2ccc3cn[nH]c3c2)C(=O)c2ccccc21 |  | active: 1.64 µM
73 | COc1ccccc1NCc1cccn1-c1nnc(N2CCCCCC2)s1 |  | inconclusive [inhibitor, single point]
74 | O=C(/C=C\Nc1ccc2c(c1)OCO2)c1cccs1 | inactive: 0.0438% | 
75 | Cc1ccc(S(=O)(=O)Nc2ccc3c(c2)C(=O)NC3=O)cc1[N+](=O)[O-] | inactive: -10.2% | 
76 | COc1ccccc1N1CCN(CC(=O)Nc2ccccc2C(=O)NC(C)c2ccccc2)CC1 (stereo unspecified) |  | active: 14.6 µM
